These results are taken from the supplement of paper PMC11417369.

± gives the standard deviation of the averaged measurements. The list shows a part of the results.

The test system of this test is PfAP2-LT AP2 domain (GST-tagged). Nature of the test: gcPBM binding intensity (ln(normalized median fluorescence intensity)); higher = stronger DNA binding. Put shortly: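 GST-tagged P. falciparum DNA-binding domains produced in E. coli were incubated for 1 h on an Agilent 4 × 180k array of primer-extended double-stranded 36-bp intergenic genomic probes with negative controls. Binding intensity is the highest Masliner-normalised natural-log median intensity across replicate spots of either probe orientation, with bound protein detected by Alexa488 anti-GST antibody at 488 nm.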
Consider “TAAACATTCTTATATAGTACCCATATTAAAATATAC [XGTACX_site8014]”, for which the “gcPBM binding intensity (ln)” value stood at 8.54 ± 0.41. For “TTAGCTTATCATTACTGTACTTTATTCATATATATG [XGTACX_site8008]”, the “gcPBM binding intensity (ln)” value came out at 9.01 ± 0.49.

For the sequence “ATTTTTTTTTCTTGTACACACTATTTTATAATTTTA [CACACA_site6102]”, the “gcPBM binding intensity (ln)” value came to 9.13 ± 0.49. Under “ACATACATATATTTATGTACATATATATTTATGATT [XGTACX_site6485]” stands 8.81 ± 0.42; under “TTTTGGTGTATAGTATTAATATAAAATAATTATATT [CACACA_negctrl_site47]”, 8.36 ± 0.42; under “AATTTATATTTATGTGCATGTAATAACTGTATATAA [TGCATGCA_site349]”, 8.71 ± 0.31. Take “AAAAAAAGATTATACACACACATATATAAACATACA [CACACA_site4553]”: the “gcPBM binding intensity (ln)” value was 9.54 ± 0.3.

With “TATAAATATTATAATTGTACATATTATAAAAATTTT [XGTACX_site2719]”, the “gcPBM binding intensity (ln)” value is 8.4 ± 0.47.

Turning to “TTTAAAATTTAATTTTGTACATATACCAATTTTATT [XGTACX_site448]”, the “gcPBM binding intensity (ln)” value came out at 8.57 ± 0.57.

For “AATTAGCATAAATGGGTGCTACACAAAAATGCATGT [GTGCAC_site9640]”, the “gcPBM binding intensity (ln)” value turned out to be 9.04 ± 0.38.

Regarding “AATATATAATCAGATGAATTTTTTTTTTTTTTTTCA [CACACA_negctrl_site534]”, the “gcPBM binding intensity (ln)” value came out at 8.18 ± 0.48. Under “ATATAATATATGTTATGTACATAGTTTTTATTGTTC [XGTACX_site7438]” stands 8.87 ± 0.46. For “ATATAATGTTAGGGTAGAGGAAGTAACTAATATAAA [CACACA_negctrl_site1153]”, the “gcPBM binding intensity (ln)” value was found to be 8.76 ± 0.56. Under “AATTTTTTATTCTTTGCATGTCATCATATATAATAT [TGCATGCA_site549]” stands 9.02 ± 0.32. Then “ATATAAATATGAAAAAGTACAAGCCATCAAGAAATC [XGTACX_site8140]”, with 9.04 ± 0.41. Turning to “AAATATATAAAAGTATGTACATATGAAAAATATATA [XGTACX_site6165]”, the “gcPBM binding intensity (ln)” value was determined as 8.94 ± 0.52. Consider “TTATAAAGAATTAGGAGTACAAATGCATATATAATA [XGTACX_site6580]”, for which the “gcPBM binding intensity (ln)” value turned out to be 8.86 ± 0.47. Under “TTATATAACATAACGATGTTTCAAAACATATTGTAT [CACACA_negctrl_site997]” stands 8.62 ± 0.45.

“AGCAACTAAAAAGGATACCCCATTAAAAAAAAATTA [XGTACX_negctrl_site489]”: the “gcPBM binding intensity (ln)” value was found to be 8.64 ± 0.51. Regarding “TGTGTATAAAAAAAGTGTACACAAAGTAAGACTTTA [XGTACX_site3759]”, the “gcPBM binding intensity (ln)” value is 8.96 ± 0.42.

For the sequence “TACCAAAAAACGGCACGCATATGTATAAGAATATGT [XGTACX_negctrl_site470]”, the “gcPBM binding intensity (ln)” value stood at 9.04 ± 0.28. As to “TTAATTAAGAAACACACACACATATATATATATATT [CACACA_site2290]”, the “gcPBM binding intensity (ln)” value stood at 9.79 ± 0.12. Then “ATATAATAAATGTCATGTACATACAACATTTTAACT [XGTACX_site7517]”, with 8.78 ± 0.32; and “TATTAATAATTTTCATGTACATATGTATTTGTAATA [XGTACX_site858]”, with 8.69 ± 0.45; and “TGAATAAAGAAACACACACACATATATATATATGTA [CACACA_site17]”, with 9.6 ± 0.25. Under “TTTTTAATTTACTGTCATAGGTACCTTAACTTATCA [CACACA_negctrl_site1664]” stands 8.83 ± 0.47. Turning to “TACTTATGTTCGCACACATGCAAATTAAAAAAAAAA [TGCATGCA_site1023]”, the “gcPBM binding intensity (ln)” value was determined as 9.07 ± 0.4. Under “TACATATACATATTGTGTACATAATAATTATTTATA [XGTACX_site7884]” stands 8.73 ± 0.35; under “GTGGATATATGTATATGTACATATGTATGTATATAT [XGTACX_site2412]”, 9.04 ± 0.33. Then “ATTTTTTTACTGGATCCATATTTGCTTTTTTATTTA [CACACA_negctrl_site1108]”, with 9.01 ± 0.45; and “GTATATTTTATTTTATGTACATATTCATTTTTTATT [XGTACX_site561]”, with 9.13 ± 0.57. Then “TTATATATATGACTTTGTACATATACATATTTTTTA [XGTACX_site4669]”, with 8.69 ± 0.44.

“TCTCTTTTTCGTTCATGTACAAATAAATAAAAATAT [XGTACX_site6558]”: the “gcPBM binding intensity (ln)” value is 8.41 ± 0.42. Then “TATTATATATATGCACGTACAAAAATAATAAAGGTA [XGTACX_site3506]”, with 8.94 ± 0.45; and “ATATGTATTTATATATGTTTGATTTTTTTTTTTTTT [TGCATGCA_negctrl_site506]”, with 8.61 ± 0.45; and “AGGAAAAAAGAAAAAACACACATAAATATATATATA [CACACA_site3085]”, with 9.11 ± 0.38. Under “AAATGAAATAAAATCATATATTTATAATTATTATAA [TGCATGCA_negctrl_site612]” stands 8.36 ± 0.53. Under “CATACAGACATACATACACACATACCTATAAATATA [CACACA_site6995]” stands 9.44 ± 0.44; under ATATTCTGCTGTTTAGTGCAATTATGAAATTATGAT, 8.64 ± 0.32. As to “AAAGAGAACAGAAGTACACACATGTTCTTTTAGTAA [CACACA_site5557]”, the “gcPBM binding intensity (ln)” value amounted to 8.98 ± 0.42.

With “TTGATTTTTATTTTTAAAATAAATAAATTTCAAATG [TGCATGCA_negctrl_site199]”, the “gcPBM binding intensity (ln)” value was 8.01 ± 0.5. On to “TAAAAAATAAAAATTGCACACTAAAAAATTACCCAC [CACACA_site5823]”, for which the “gcPBM binding intensity (ln)” value stood at 9.09 ± 0.26. Then “TAAAAAGAAATGTAAAGTACAAATTTGAATAACATG [XGTACX_site7981]”, with 8.88 ± 0.52. Take “AAAAAAAACAAACACACACACAAATATTTATATATT [CACACA_site436]”: the “gcPBM binding intensity (ln)” value came to 9.63 ± 0.22.
